# In the supplement of paper PMC11417369:
# ± gives the standard deviation of the averaged measurements. This is one part of the list.
# System: PfAP2-LT AP2 domain (GST-tagged)
# Assay: gcPBM binding intensity (ln(normalized median fluorescence intensity)); higher = stronger DNA binding
# How it was run: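 For binding intensity, the highest Masliner-normalised natural-log median intensity across replicate spots of either probe orientation was taken. Protein bound to the array was stained with Alexa488 anti-GST antibody and scanned at 488 nm. The protein, GST-tagged P. falciparum DNA-binding domains from E. coli at about 25 μg on average, had been applied for 1 h to an Agilent 4 × 180k array of primer-extended double-stranded 36-bp intergenic genomic probes and negative controls.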
row,Sequence,gcPBM binding intensity (ln)
1,GGATAATATATTAGAACACACATATATCTGTAAAAA [CACACA_site4266],9.16 ± 0.35
2,TAATATAATATATGCACACAAATATGTATATATGTG [CACACA_site2134],9.29 ± 0.23
3,AATAAAATAATAAAAGCACACAAGAATACAGACAAA [CACACA_site112],9.21 ± 0.4
4,TAAGTATAAATATTTACACACATTTGTTTTTTTTTA [CACACA_site7731],8.78 ± 0.4
5,ATGTAAAACATAAAATGTACATATTATACAAACTAT [XGTACX_site5797],9.1 ± 0.42
6,AACTATTTTATTATATGTACTTACGAATTTATAAAA [XGTACX_site5262],8.46 ± 0.37
7,CACAAAATAAATTAAACACACAACATCAGATATGTA [CACACA_site6529],9.09 ± 0.4
8,TAATATACATAATAATGTACATATTTTCATATATAC [XGTACX_site6913],8.74 ± 0.35
9,TGTGTTGTAACAAAATGTACGAGCTTGATGTAGAAT [XGTACX_site2293],9.04 ± 0.39
10,ATAAACTGATGTGTATGTACACATGTAATAATAAAT [XGTACX_site7649],9.21 ± 0.6
11,AATGTAGGTTTATTTACACACAAATATAAATATATA [CACACA_site1523],8.95 ± 0.45
12,ACAGTATCTGGTAGCTGTACGGATTGTAGAGAGTAG [XGTACX_site4872],9.01 ± 0.46
13,AGAATAATAAAATGGGTGCAATAGTTTTTTTTTTTT [GTGCAC_site9823],8.76 ± 0.48
14,CAAAACCTACATAACATACACACGCATATATAGAAT [CACACA_site2846],9.35 ± 0.28
15,TTCTTATCAAGAGAAAGTACATAAAAAATTAATAAG [XGTACX_site1821],8.39 ± 0.49
16,CCAACAAAAATAAGCACACACAAATATACATACATA [CACACA_site3606],9.62 ± 0.45
17,CATGCAATATTAAACACACACTCATATAGCACAATA [CACACA_site6182],9.37 ± 0.45
18,TTGGATTTTCCATAATGTACACATAAAAGTGTTACA [XGTACX_site4544],8.46 ± 0.38
19,TAATATAGTATAGTATGTACATATAATTAGAATATT [XGTACX_site4053],8.96 ± 0.63
20,TGGTATATATTTCCTTGTACATATAATATATATTGT [XGTACX_site3961],8.94 ± 0.51
21,ATATATATATATATATGTACATATTTTAATAATTAA [XGTACX_site8549],9.18 ± 0.12
22,CGCGCACACGGACACACACACACACGGATATAAATA [CACACA_site7102],10 ± 0.4
23,TGTTGTTACATATATACACACATATATATATTATAT [CACACA_site2397],9.11 ± 0.4

row,Sequence,gcPBM binding intensity (ln)
1,TCTTGACGAAGTAGAAGGATATATATATAAAAAAAA [CACACA_negctrl_site641],8.63 ± 0.54
2,TCCAGGTATTTATTCTGTACACATAAAACATTTTAT [XGTACX_site8472],8.77 ± 0.46
3,TCGTCTCTTCTTGTTCTGTTTTAGAAGGCTATATAT [CACACA_negctrl_site180],8.88 ± 0.44
4,AGGAGGTCAGTTCACAGTACCCAGAAAACTCTACGA [XGTACX_site1992],8.61 ± 0.52
5,TATTAAAGGGGTTTCACACACATGTATAATTAATTT [CACACA_site200],9.04 ± 0.45
6,AATTTGTTATGTATATGTACATAAATAGATATATGA [XGTACX_site3930],8.8 ± 0.49
7,AACCATATTTAGATTACACACAGTTTAAATATTTTA [CACACA_site6712],8.78 ± 0.42
8,AATATGAACAGACACACACACACAAAAAAAAAAAAA [CACACA_site2012],9.9 ± 0.56
9,TTATGAAAAATAAAATTAGAAAAAAAGGAAAATGAA [XGTACX_negctrl_site232],8.49 ± 0.35
10,TTTCTTAAATATATTGAGGAATAAAAAGAAGAAAAG [GTGCAC_negctrl_site281],8.33 ± 0.4
11,AAAAAATTATAAAAGTGTACATATATATATATATAT [XGTACX_site154],9.42 ± 0.13
12,AGGTTACATAGATTTTGTACATATATATTATTTTTT [XGTACX_site3040],8.78 ± 0.48
13,AATACAAATATATACACACATACATACATACATATA [CACACA_site3147],9.43 ± 0.39
14,ATATATATATGTTACTGTACTAATTTATATGTTAAT [XGTACX_site3341],8.96 ± 0.39
15,TAGTTTTCTTAAAGATGTACATTTTAAAAATAATCT [XGTACX_site255],8.29 ± 0.42
16,TAGATATATAATTTGCGTACACAAATAATATATTTT [XGTACX_site6397],8.61 ± 0.41
17,ATACACATATGTTAATGTACACATATATAATATTTA [XGTACX_site163],8.76 ± 0.47
18,TTATGGTTTAAATAAAGTACAAATAAATAAATATAT [XGTACX_site5777],8.66 ± 0.38
19,CACAAAAATAGACACACACACATATAGATTTATTAT [CACACA_site7676],9.62 ± 0.36
20,TTTATTTATTACAATTTTTGAATCACCACACAGTCG [GTGCAC_negctrl_site413],8.68 ± 0.58
21,ATCATGTTATATACATGTACATATATATATATATAT [XGTACX_site1329],9.38 ± 0.57
22,TATTTATTTATGTGTTGTACAAATAAATAGAGGTAT [XGTACX_site6408],8.85 ± 0.26
23,ATATATTAAAAACGATGTACCCTGAACTAAAAAAAA [XGTACX_site4986],8.65 ± 0.47

row,Sequence,gcPBM binding intensity (ln)
1,TATATGAAAATGTTCATACACACATAAAAAAAAAAA [CACACA_site3237],8.86 ± 0.57
2,CATATTTCTTTATTGGCACACATTTTTTCAATTATA [CACACA_site1618],8.99 ± 0.52
3,TGTTATTACTTTATATCATCTTAAAATAAGCATATT [CACACA_negctrl_site1501],8.43 ± 0.47
4,AAAAAAAAAAAAAACACACACAAATTTAATCTATAT [CACACA_site6894],9.31 ± 0.51
5,TGAAATAAATAATGCACACTCTACAGATATACGTAT [CACACA_site5270],9.01 ± 0.31
6,TTGAAAATACAAAATTGTACAAAGATTTAAATAAAA [XGTACX_site1182],8.7 ± 0.49
7,CGCATACACAGACACACACACACATATAAATATGTA [CACACA_site6444],9.98 ± 0.47
8,AATTTTTTATTAAACACACAAACATATATATATATA [CACACA_site1937],9.29 ± 0.085
9,TATACCTATAGACACACACACATATAGATTTATATA [CACACA_site7124],9.61 ± 0.4
10,TTCATTCAAATTAACGTGCACATTATTAGTAAAAAC,8.6 ± 0.42
11,TTATATAATTTAATAGTGCAATTATATTAATTTTTC,8.39 ± 0.49
12,GTTCATACTTAATATTGTACTTTTCATGTAGTGTAT [XGTACX_site6613],9.01 ± 0.38
13,TAACATATTTTTAATACACACTCAAAAAAGTACTTA [CACACA_site5638],8.49 ± 0.4
14,AAATAAATATTTATATGTACATATATTTTATAATAC [XGTACX_site7041],8.72 ± 0.46
15,TACAAATATATATGCACACACATATACATACATATA [CACACA_site2182],9.34 ± 0.32
16,TATTAGATATAATATATACACACCAACGAACGAAGA [CACACA_site1134],9.14 ± 0.33
17,TTTATCCAATAATCTGGTACACAATAATCATTCATG [XGTACX_site6192],8.63 ± 0.47
18,TTTTTTTACTTAATAGTTCAACATATATCTCAATGT [CACACA_negctrl_site620],8.64 ± 0.53
19,TTTCTATTTATTTCAAGTACTAAAAATATATATAAC [XGTACX_site8203],8.29 ± 0.49
20,ATTCATATATACTTCACACACATTTTATCATTCAAA [CACACA_site2468],9.21 ± 0.45
21,TTTTTGTGCATTGATTGTACTTTCTAGGATTATTAA [XGTACX_site7070],8.71 ± 0.38
22,TTTTTTTTTTTGATGGTGCAATATATTAAATAGAAA,8.19 ± 0.41
23,TATATATATATATAAAGTACATATAATATATATTTG [XGTACX_site5412],8.93 ± 0.11

row,Sequence,gcPBM binding intensity (ln)
1,TTTTTTCATTATATATAGTATGCAAGTCAAATTAAT [GTGCAC_negctrl_site207],8.45 ± 0.48
2,AAAAAAAAAAAAAACATACACACATTGAACTTTTAT [CACACA_site3251],8.97 ± 0.4
3,CTATAAAAATATAATTGTACAAATTTTTATATCTTA [XGTACX_site7722],8.35 ± 0.45
4,ACAAAATTTACAAAATGTACAAAATTTACAAAATAT [XGTACX_site3542],8.8 ± 0.51
5,GAAAACGTCTTTAATAGTACACAGTTAAAAAATACA [XGTACX_site8976],8.55 ± 0.4
6,GAAATTATGTAAAAAAGTACTAACATACATATATAT [XGTACX_site1794],8.81 ± 0.42
7,TCATATAACACTTGATGTACAAGAATCCAAGTTGCA [XGTACX_site8758],8.74 ± 0.24
8,ATATGTATAATATATATATATATATATATATATATA [CACACA_negctrl_site623],9.52 ± 0.21
9,TTAAAATAGATAAATAGTACTCTTTCCATTATGTAA [XGTACX_site6299],8.43 ± 0.51
10,TATATAATAAGATATGCATGCACATGTAAAATGAAT [TGCATGCA_site499],9.26 ± 0.31
11,ATAATGTTTTATAATACACACATTAGATATATAAAT [CACACA_site7834],8.87 ± 0.38
12,GTGATAAATATTATATGTACATATAATATTTATGTC [XGTACX_site8023],8.87 ± 0.3
13,TTGAACCTGATAAATACACACAATATATATTTTTTT [CACACA_site2173],8.78 ± 0.44
14,CCATTCTTACTTTATTGTACTTGAAAATTTTTTTTA [XGTACX_site6160],8.77 ± 0.51
15,TCAAAAACGAGACATGCATGCAATTCATTTTGATTC [TGCATGCA_site212],9.02 ± 0.24
16,TAAATACTTTTATGTACACACATATAGATATATATT [CACACA_site5416],8.94 ± 0.36
17,TCAAACGGTTAAATATGTACATATATATATATATAT [XGTACX_site2339],9.695 ± 0.0071
18,AAAAAAAAAAGACACACACACATATAAATATAAATA [CACACA_site6899],9.81 ± 0.26
19,ACTCATAAAAATAGATGTACTTTAATAATTTGATTT [XGTACX_site8763],8.48 ± 0.52
20,GTACATACATAAAACACACACATATAGATTTATATA [CACACA_site6945],9.47 ± 0.33
